Data reported in PubChem BioAssay AID686978 (National Center for Advancing Translational Sciences (NCATS), 2013).
Several values for one entry are separate records, joined by “and”; a condition that tells them apart may be missing. Identical values can stand only once. Out of some 420,000 compounds screened, about 64,000 (15%) were called active. This list was built around the results that the source calls inconclusive (neither active nor inactive); the mix of calls is not that of the screen. Calls come from the whole dose curve; as a rule, active = well fitted inhibition curve with a large enough effect; inconclusive = small, poorly fitted or top-dose-only effect; inactive = flat fitted curve, though single readings scatter. A potency beside an inconclusive call is a rough fit, not a confirmed value.

Test: qHTS for Inhibitors of human tyrosyl-DNA phosphodiesterase 1 (TDP1): qHTS in cells in absence of CPT; note: nearly all actives have a fitted effect of over 55% in size
Conditions: DT40 Tdp1-/- hTDP1 cells, no CPT, ATP luminescence, 48 h; activity change, negative = growth inhibition: at 46.2 µM (top of the series) unless noted
Summary of the method: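 Chicken DT40 Tdp1-/- cells complemented with human TDP1, screened without camptothecin (DMSO vehicle only), 400 cells/well. Compounds pin-transferred, cells incubated at 37 °C for at least 48 hr. Growth read as ATP-dependent luminescence (CellTiter-Glo, 30 min at RT).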
% is set by controls: 0 for no effect and ±100 for the full control effect; potency is the fitted concentration of half-maximal effect; tags give direction and shape of the fitted curve.

SMILES	Potency	activity change, negative = growth inhibition
O=C(c1ccccn1)N1CCCC(N2CCN(c3cccc(C(F)(F)F)c3)CC2)C1 (stereo not given)	active: 14.6 µM	
CCOc1ccc(CN2CCN(CC3=Cc4cccc(OC)c4OC3)CC2CCO)cc1 (stereo not given)	inconclusive: 23.1 µM [inhibitor, single point]	
NC(=O)c1ccsc1NC(=O)COC(=O)CCc1ccccc1	inconclusive: 29.1 µM [inhibitor, single point]	
Cc1ccc(-n2nnnc2SCC(=O)Nc2sccc2C#N)cc1		inconclusive: -32.5% [inhibitor]
COc1cc(NC(=O)CCCSc2nc(-c3ccco3)cc(C(F)(F)F)n2)cc(OC)c1OC	inconclusive: 23.1 µM [inhibitor, single point] and inconclusive: 18.4 µM [inhibitor, single point]	
Cn1c(=O)n(Cc2ccccc2)c2ccccc21	inactive	
COc1ccc(NS(=O)(=O)c2ccc(O)c(NC(=O)c3cc4c(C)nn(-c5ccc(F)cc5)c4s3)c2)cc1	inconclusive: 20.6 µM [inhibitor, single point]	
Cc1ccc(S(=O)(=O)N2CCCCC2)cc1NC(=O)C1CCN(C(=O)OC(C)(C)C)CC1	active: 16.4 µM	
CCOC(=O)C1(CC2CCCCO2)CCN(Cc2nccn2-c2cccc(C)c2)CC1 (stereo not given)	inconclusive: 29.1 µM [inhibitor, single point]	
CCCS(=O)(=O)N1CCCC(C(=O)NCC(OC)OC)C1 (stereo not given)	inactive	
O=C(CN1CCN(S(=O)(=O)N2CCCCC2)CC1)Nc1ccc(Br)cc1	active: 16.4 µM	
CSc1nnc(C)c(/C=C/Nc2ccc(Cl)cc2)n1	inconclusive: 20.6 µM [inhibitor, single point]	
Cc1cc(C(=O)CSc2nnnn2-c2ccccc2)c(C)n1CC1CCCO1 (stereo not given)	inconclusive: 10.3 µM [inhibitor, partial curve, poor fit]	
Cc1cc(NC(=O)c2ccc3c(c2)C(=O)N(C2CCCCC2)C3=O)no1	active: 14.6 µM	
CCOc1ccccc1NC(=O)C(OC(=O)c1cc(C)oc1C)c1ccccc1 (stereo not given)	active: 18.4 µM	
O=C(NCc1nc(-c2ccc(Cl)cc2)no1)c1ccco1	inactive	
CCOc1ccc(S(=O)(=O)/N=C(/Nc2ccc(C)c(S(=O)(=O)N3CCOCC3)c2)c2ccccc2)cc1	inconclusive: 18.4 µM [inhibitor, single point]	
CC(C)(C)OC(=O)N1CCC(c2c(C(=O)NCCN3CCOCC3)cnn2-c2ccccc2)CC1	active: 5.8 µM	
CN1c2ccccc2-c2nc3ccccc3n2C1c1ccco1 (stereo not given)	inconclusive: 18.4 µM [inhibitor, single point]	
CC1Cc2ccccc2N1C(=O)CN(C)CC(=O)Nc1ccc(OC(F)(F)F)cc1 (stereo not given)	inconclusive: 18.4 µM [inhibitor, single point]	
CC(C)CN1CC[C@@]2(CCCN(C(=O)c3ccco3)C2)C1	inactive	
CN(C)CCCNC(NC(=O)/C=C/c1ccccc1)C(Cl)(Cl)Cl (stereo not given)	inactive	
CCCc1ccc(OCc2ccc(C(=O)N/N=C/c3cccnc3)o2)cc1	inactive	

SMILES	Potency	activity change, negative = growth inhibition
Cc1ccccc1OCC(=O)NC(=S)Nc1ccc(S(=O)(=O)NC2CCCCC2)cc1	active: 13 µM	
COC(=O)c1cc(NS(=O)(=O)c2cccc(Cl)c2)ccc1N1CCOCC1	inconclusive: 23.1 µM [inhibitor, partial curve]	
O=c1oc(-c2ccc(O)c(O)c2)cc2cc(O)cc(O)c12	inconclusive: 29.1 µM [inhibitor, single point]	
CCOC(=O)c1c(Nc2ccccc2)nnc(-c2ccccc2)c1-c1ccccc1	inconclusive: 20.6 µM [inhibitor, single point]	
Cc1ccc(C2(C)NC(=O)N(CC(=O)N(Cc3ccccc3)C(C)(C)C)C2=O)cc1 (stereo not given)	inconclusive: 20.6 µM [inhibitor, partial curve]	
COc1ccccc1NC(=O)C1=C(C)Nc2ncnn2C1c1ccc[nH]1 (stereo not given)	inactive	
CCN(CC)C(=O)Cn1c(SCC(=O)Nc2ccc(C)c(C)c2)nc2ccccc21	inconclusive: 20.6 µM [inhibitor, single point]	
CSc1ccc(NS(=O)(=O)c2ccc(-n3cnnn3)cc2)cc1	active: 20.6 µM	
CCS(=O)(=O)N1CCC(C(=O)NCCCN2CCN(c3ccccc3F)CC2)CC1	inactive	
CC(C)N(Cc1nc(-c2ccccc2)no1)C(=O)C1CCCCC1	inconclusive: 22.4 µM [inhibitor, single point]	
COc1cccc(C(=O)NC2CCN(CC(=O)NCc3ccccc3OC)CC2)c1	inconclusive: 16.4 µM [inhibitor, single point]	
O=C(Nc1nc(-c2ccccc2)cs1)c1ccc(=O)[nH]c1	inconclusive: 29.1 µM [inhibitor, single point]	
NS(=O)(=O)c1ccc(NC(=O)Nc2ccc(Cl)cc2)cc1	active: 16.4 µM	
CN1CCN(c2ncc3c(n2)CCN(Cc2ccccc2Cl)C3)CC1	inconclusive: 23.1 µM [inhibitor, single point]	
COCCn1c(SC(C)C(=O)NCC2CCCO2)nc2scc(-c3ccc(F)cc3)c2c1=O (stereo not given)	inconclusive: 11.6 µM [inhibitor, partial curve]	
CCCCNCc1cc(Br)c(OCc2cccs2)c(OC)c1	inconclusive: 25.9 µM [inhibitor, single point]	
CCOc1ccc(NC(=O)CC2C(=O)N(c3ccc(OC)c(Cl)c3)C(=S)N2C2CC2)cc1 (stereo not given)	inconclusive: 25.9 µM [inhibitor, single point]	
CC(C)(C)C(=O)NC1CC2CCCC(C1)N2C(=O)Nc1ccc(Cl)cc1 (stereo not given)	inactive	
CC(C)(C)C(=O)COC(=O)c1cc(S(=O)(=O)N2CCCCC2)ccc1N1CCOCC1	inactive	
Cc1cc2oc(C(=O)N(Cc3ccccc3)C3CCS(=O)(=O)C3)cc(=O)c2cc1C (stereo not given)	inconclusive: 23.1 µM [inhibitor, single point]	
CCN1/C(=C/c2cc[n+](CCCS(=O)(=O)[O-])c3ccccc23)Sc2ccccc21	inactive	
Cc1ccc(NC(=O)CN2C(=O)C(c3ccccc3)=NC2(C)C)cc1C	inactive	
